The test system of the experiment is 276233-004-R-J1-PDC complex spheroid viability. Nature of the experiment: Anticancer human tumor 276233-004-R-J1-PDC patient-derived colon adenocarcinoma cell line growth inhibition [GQUAD]. The following applies: stronger effect = lower value. The source says: DNA G-quadruplex Stabilizer Agents in Combinations in Complex Spheroids
A high-throughput screen of multi-cell type tumor spheroids was designed to identify active combinations of DNA G-quadruplex stabilizer agents and targeted small molecules. Complex spheroids include a stromal component modeled by human endothelial cells (HUVEC) and fibroblasts modeled by human mesenchymal stem cells (MSCs). The concentration ranges selected for each drug and investigational agent were based upon clinically achievable concentrations if the clinical Cmax of the agent was known.
Compounds. The drugs and investigational agents: pidnarulex (CX-5461; NSC782164), APTO-253 (NSC789042), BRACO-19 (NSC847499), peposertib (NSC802822), ceralasertib (NSC780249), elimusertib (NSC800525), camonsertib (NSC841442), AZD-1390 (NSC803789), olaparib (NSC753686), talazoparib (NSC767125), ART-558 (NSC835418), sotorasib (NSC818433), MRTX-1133 (NSC836407), SN-38 (NSC673596), topotecan (NSC609699), etoposide (NSC141540), doxorubicin (NSC123127), gemcitabine (NSC613327), 5-fluorouracil (NSC19893), paclitaxel (NSC125973), vemurafenib (NSC761431), panobinostat (NSC761190), R-306465 (JNJ-16241199; NSC773264), adavosertib (NSC754352), TP-3654 (NSC805149), carboplatin (NSC241240), KSQ-4279 (NSC840948), and staurosporine (NSC755774) were obtained from the National Cancer Institute (NCI) Developmental Therapeutics Program Chemical Repository (34). The FDA-approved anticancer drug set is available from the NCI Developmental Therapeutics Program. […] The stock solutions were prepared in dimethyl sulfoxide (DMSO, Sigma-Aldrich, St. Louis, MO, cat. D2650) at 800-fold the tested concentration and stored at -70 degrees C prior to their use. All drugs and investigational agents were tested over a range starting from a high concentration at or near the clinical Cmax and decreasing in half-log increments. If the clinical Cmax for an agent had not been determined, the highest concentration tested was 10 microM.
2.3 Cell Culture. All cells were maintained in an incubator at 37 degrees C and 5% CO2 with 95% humidity. The PDC lines were cultured according to standard operating procedures established by the NCI PDMR. All PDCs were thawed and cultured in Matrigel-coated flasks prepared with a working solution of 1X Ham's F-12 nutrient mix, without supplementation (Invitrogen, cat. 11765054), 100 U/mL penicillin-streptomycin (Invitrogen, cat. 15140122), and 2.5% Matrigel (Corning Inc., cat. 354248) for the first three passages. The 857933-349-R-J2-PDC line was cultured in 6C/Colon 1B media, which includes advanced DMEM/F-12 (Thermo Fisher Scientific, cat. 12634028), 10 mM HEPES (Thermo Fisher Scientific, cat. 15630080), 1X GlutaMAX supplement (Thermo Fisher Scientific, cat. 35050061), 0.1 mg/mL primocin (InvivoGen, cat. ant-pm-2), 10% defined fetal bovine serum, heat inactivated (HyClone Laboratories Inc., cat. SH30070.03HI), 50% L-WRN conditioned media (ATCC, cat. CRL-3276), 1.25 mM N-Acetyl-L-cysteine (Sigma-Aldrich, cat. A9165), 10 mM nicotinamide (Sigma-Aldrich, cat. N0636), 1X B-27 supplement (Thermo Fisher Scientific, cat. 17504044), 1X N-2 supplement (Thermo Fisher Scientific, cat. 17502048), 10 microM Y-27632 dihydrochloride (Tocris Bioscience, cat. 1254), and 50 ng/mL human EGF recombinant protein (Thermo Fisher Scientific, cat. PHG0311). The 485176-168-R4-J1-PDC line was cultured in Panc media, which includes all 6C/Colon 1B media components plus 100 ng/mL human FGF-10 (Thermo Fisher Scientific, cat. 100-26), 500 nM SB-431542 (Selleckchem, cat. S1067), and gastrin (Tocris, cat. 3006).
[…]

Some entries of the source have several records that differ or are many. This list holds those alone. There may be further records. Results that share an entry are repeated measurements across runs, samples, wells, individuals or studies.

Here are results for three compounds from PubChem BioAssay AID2060496 (Molecular Pharmacology Branch, DTP, NCI, 2025).
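Note: spheroids exposed to drugs for seven days.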

For `Cc1cnc(CNC(=O)c2c(=O)c3ccc(N4CCCN(C)CC4)nc3n3c2sc2ccccc23)cn1`, the viability, T/C (as a rule, the ratio of treated to control) is recorded as 94.6, 88.4, 96.8, 98.5, 107, 85.9, 106, 82.8, 79.8, 98.7, 81.3, 84.9% (compound alone 0.0316 µM); 92.7, 105, 89.1, 102, 76.3, 91.5, 86.9, 83, 90.7, 100, 101, 85.9% (compound alone 0.1 µM); 84.4, 85.3, 86.9, 96.6, 78.9, 79.1, 104, 88.9, 93.3, 76.8, 88.2, 92.5% (compound alone 0.316 µM).
For `CN(C)c1ccc(Nc2c3ccc(NC(=O)CCN4CCCC4)cc3nc3cc(NC(=O)CCN4CCCC4)ccc23)cc1`, the viability, T/C is listed as 106, 84, 99.3, 88.2, 91.3, 82.6, 99.4, 74.4, 92.3, 94.2, 87, 98.2% (compound alone 0.0316 µM) and 82, 70.9, 90.1, 85.9, 86.2, 95.9, 67.7, 64.4, 77.7, 69.5, 75.4, 71.4% (compound alone 0.1 µM).
Regarding `Cc1[nH]c2ccc(F)cc2c1-c1nc2c3cccnc3c3ncccc3c2[nH]1`, the viability, T/C (compound alone 0.0316 µM) is on record as 81, 84.1, 101, 90.3, 104, 95.4, 91.8, 78.8, 80.3, 83.8, 72.4, 90%; the viability, T/C (compound alone 0.1 µM) is listed as 98.7, 96.3, 110, 95.4, 93.8, 98.2, 99.1, 85.7, 84.6, 72, 69.4, 70.4%; the viability, T/C (compound alone 3.16 µM) is recorded as 40.9, 37.1, 42.8, 41.1, 39.1, 49.2, 39.5, 43.5, 19.7, 22.8, 15.6, 17.8%.
